Test results taken from PubChem BioAssay AID1671193 (National Center for Advancing Translational Sciences (NCATS), 2021).
Out of some 150,000 compounds screened, about 180 (0.12%) were called active. Inconclusive results, whose numbers are uncertain, are shown with a selection of clear calls. Calls follow the shape of the dose curve; as a rule, active = well fitted cell-killing curve with a large enough effect; inconclusive = small, poorly fitted or top-dose-only effect, or effect the other way; inactive = flat fitted curve, though single readings scatter. A potency beside an inconclusive call is a rough fit, not a confirmed value.

Assay: GF-AFC viability counterscreen for inhibitors of alpha-synuclein gene (SNCA) expression; also: nearly all actives have a fitted effect of over 30% in size;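 as to activity change, negative = cytotoxicity: 0% = DMSO-treated cells and -100% = medium-only wells without cells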
Conditions: HEK-293-SNCA-luc viability, GF-AFC fluorescence, 24 h; activity change, negative = cytotoxicity: at 57.1 µM (top of the series) unless noted
Outline: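 HEK-293-SNCA-luc cells (1500/well) plated 24 h, then exposed 24 h to a dilution series; GF-AFC added 30 min at 37C, fluorescence 405/540 nm; normalised to medium-only and DMSO wells, Hill fit.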
Potency is read from the fitted curve at half-maximal effect; tags tell the direction and shape of the fitted curve.

Row | SMILES | Potency | activity change, negative = cytotoxicity
1 | Cc1cccc(N2C(=O)CSC23C(=O)N(CC(=O)Nc2cccc(Cl)c2)c2ccccc23)c1 (stereo unspecified) | inconclusive: 11.2 µM [cytotoxic, partial curve, poor fit] | 
2 | Cc1cc2cccc(-c3nc(C4CCOC4)no3)c2o1 (stereo unspecified) | inconclusive: 39.8 µM [cytotoxic, single point] | 
3 | CCOc1ccc(N2CC(c3nc4ccccc4n3CCCCOc3ccc(OC)cc3)CC2=O)cc1 (stereo unspecified) | inconclusive: 25.1 µM [cytotoxic, single point] | 
4 | COCCn1c(=O)c(-c2cccs2)nc2cnc(OCc3ccccc3)nc21 | inconclusive: 25.1 µM [rising, single point] | 
5 | Cc1ccccc1CC(=O)N1CCC2(CC1)N=C(c1cccc(Br)c1)NO2 | inconclusive: 8.91 µM [rising, partial curve, poor fit] | 
6 | COc1ccccc1CN1CCC2(CCNCC2)CC1 | inconclusive: 3.98 µM [cytotoxic, partial curve, poor fit] | 
7 | CSc1ccc(-c2cccc(CN)c2)cc1 | inconclusive: 56.2 µM [cytotoxic, single point] | 
8 | COc1ccc(OC)c(C2Nc3c(C)cc(C)cc3-c3cc(C)nn32)c1 (stereo unspecified) | inconclusive: 8.91 µM [rising, partial curve] | 
9 | OCC1(CN2CCCC2)CCN(C/C=C/c2ccccc2)CC1 | inactive | 
10 | COc1ccc(NC(=O)Cn2c(-c3ccccc3)nc(C)c(CCO)c2=O)cc1OC | inconclusive: 4.47 µM [cytotoxic, full curve, poor fit] | 
11 | CC1CCC2(CC1)OCC(C(=O)NCc1ccc3c(c1)OCO3)N2C(=O)c1ccccc1F (stereo unspecified) | inconclusive: 7.08 µM [cytotoxic, single point] | 
12 | Cc1ccccc1C(=O)N[C@H]1[C@H](O)[C@H](O)C[C@@H]1c1ccc(N2CCOCC2)nc1 | inactive | 
13 | Cc1nn(-c2ccc(C(F)(F)F)cc2)c(C)c1[C@@H]1C=C[C@@H](NC(=O)Nc2ccccc2)C1 | inconclusive: 35.5 µM [cytotoxic, single point] | 
14 | C[C@H]1[C@@H](OC(=O)CCC(=O)O)O[C@@H]2O[C@@]3(C)CC[C@@H]4[C@H](C)CC[C@@H]1[C@@]24OO3 | inconclusive: 13.6 µM [cytotoxic, partial curve] | 
15 | Cc1c(CN2CCN(C(=O)C(C)O)CC2)sc2c(N3CCOCC3)nc(-c3cnc(N)nc3)nc12 (stereo unspecified) | inconclusive: 0.238 µM [cytotoxic, full curve] | 
16 | c1ccc(-c2nc3ccncc3[nH]2)nc1 | inactive | 
17 | Cc1noc2c(NCCc3ccccn3)cc(-c3ccccn3)nc12 | inactive | 
18 | COc1ccc(NC(=O)c2sc3nc(C)c(C(=O)Nc4ccc(C)cc4C)c(-c4ccccc4Cl)c3c2N)cc1 | inconclusive: 22.4 µM [rising, single point] | 
19 | CCOc1ccccc1NC(=O)CSc1ccc2nnc(CCNS(=O)(=O)c3ccccc3)n2n1 | inactive | 
20 | CN(Cc1cccc(OCC(O)CN2CCOCC2)c1)Cc1ccc2nonc2c1 (stereo unspecified) | inactive | 
21 | CN1c2cc(C(=O)N3CCN(c4cccc(Cl)c4)CC3)ccc2C(=O)N2CCCC21 (stereo unspecified) |  | inactive: 10% [at 12.5 µM]

Row | SMILES | Potency | activity change, negative = cytotoxicity
22 | COC[C@@H]1CN(C(=O)c2ccc(C#N)cc2)C[C@H]1c1ccncc1 | inconclusive: 7.08 µM [cytotoxic, single point] | 
23 | Cc1ccc(C(=O)N(C)C2CCCc3ccccc32)cc1 (stereo unspecified) | inconclusive: 56.2 µM [cytotoxic, single point] | 
24 | CCCCOc1c(CNC2(CO)CCCC2)cccc1OC | inactive | 
25 | Cc1cccc(CNc2nc(-c3c(C)noc3C)nc3ccccc23)c1 | inconclusive: 39.8 µM [cytotoxic, single point] | 
26 | Cc1ccc(NC(=O)/C(C#N)=C/c2cc(C)n(-c3ccc(Br)cc3)c2C)cc1C | inconclusive: 17.8 µM [cytotoxic, single point] | 
27 | NCC(=O)Nc1ccc(-n2nc(C(F)(F)F)cc2-c2ccc3c(ccc4ccccc43)c2)cc1 | inconclusive: 29.9 µM [cytotoxic, partial curve, poor fit] | 
28 | COc1ccc(NC(=O)c2cnn(-c3ccc(F)cc3F)c2C2CCN(C(=O)OC(C)(C)C)CC2)cc1Cl | inconclusive: 39.8 µM [cytotoxic, single point] | 
29 | O=C(Cn1cccc1-c1nc(-c2ccc3c(c2)OCO3)no1)NCc1ccccc1Cl | inconclusive: 3.55 µM [cytotoxic, single point] | 
30 | CC1(COCC2CC2)COc2ccc(C(=O)NCc3cccnc3)cc2N1 (stereo unspecified) | inconclusive: 12.6 µM [cytotoxic, partial curve, poor fit] | 
31 | COc1ccc(CNC(=O)C2CCCCN2Cc2ccc(-c3ccccc3OC)cc2)cc1 (stereo unspecified) | inconclusive: 15.8 µM [cytotoxic, partial curve, poor fit] | 
32 | Cc1ccccc1COC1CN(C(=O)C2CC(=O)N(C(C)(C)C)C2)C1 (stereo unspecified) | inactive | 
33 | O=C(NCCc1csc2nc(-c3ccccc3F)nn12)c1ccccc1C(F)(F)F | inconclusive: 39.8 µM [cytotoxic, single point] | 
34 | Cc1nn(Cc2ccccc2)c(C)c1[C@@H]1C=C[C@@H](NC(=O)c2ccco2)C1 | inactive | 
35 | Cn1c(=O)c(-c2cccs2)nc2cnc(Oc3ccccc3)nc21 | inconclusive: 28.2 µM [rising, single point] | 
36 | COc1ccc(NC(=O)N2Cc3[nH]cnc3C[C@H]2c2nc(-c3ccc(Cl)cc3)no2)cc1 | inconclusive: 7.08 µM [cytotoxic, partial curve, poor fit] | 
37 | O=C(NCc1ccc(Cl)nc1)c1ccc2ccnn2c1 | inactive | 
38 | COc1ccc(OC)c(-c2noc(N3CCN(c4ccc(C(C)=O)cc4)CC3)n2)c1 |  | inconclusive: 42.2%
39 | O=C(NCc1ccc(F)cc1)N1CC(Oc2ccc(-c3noc(-c4ccccc4)n3)cc2)C1 | inconclusive: 20 µM [cytotoxic, partial curve, poor fit] | 
40 | Cn1cc(CC(=O)N2CCCc3ncc(C(=O)NCc4ccccc4)cc32)c2ccccc21 | inconclusive: 39.8 µM [cytotoxic, single point] | 
41 | COc1ccc(CCNC(=O)C2(c3cccs3)CCOCC2)cc1 | inconclusive: 31.6 µM [cytotoxic, partial curve, poor fit] | 
